# Test results published in publication PMC9911399, “Two distinct binding modes provide the RNA-binding protein RbFox with extraordinary sequence specificity”.
# Where a chain is given by its changes, count along the chain named. The list shows a part of the results.
# T1: RBFOX1 RRM (Homo sapiens, UniProt Q9NWB1 109-208)
# T1 sequence: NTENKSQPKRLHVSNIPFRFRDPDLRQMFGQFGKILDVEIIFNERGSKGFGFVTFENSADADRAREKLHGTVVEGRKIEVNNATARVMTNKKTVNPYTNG
# B1: CAACCUG (DNA:RNA)
# RNA: GGGAGACCGGAAUUCAGAUUGUCCCAACCUGUUAAAUCCCGUCGUAGCCACCA
# DNA 1: CAATCTGAATTCCGGTCTCCC
# DNA 2: TGGTGGCTACGACGGGATT
# B2: GCUGCUU (DNA:RNA)
# RNA: B1 RNA with C25G, A26C, A27U, C28G, G31U
# DNA 1: CAATCTGAATTCCGGTCTCCC
# DNA 2: TGGTGGCTACGACGGGATT
# B3: UUCAAGG (DNA:RNA)
# RNA: B1 RNA with C25U, A26U, A27C, C28A, C29A, U30G
# DNA 1: CAATCTGAATTCCGGTCTCCC
# DNA 2: TGGTGGCTACGACGGGATT
# B4: CUCCUAU (DNA:RNA)
# RNA: B1 RNA with A26U, A27C, C29U, U30A, G31U
# DNA 1: CAATCTGAATTCCGGTCTCCC
# DNA 2: TGGTGGCTACGACGGGATT
# B5: GUACGCA (DNA:RNA)
# RNA: B1 RNA with C25G, A26U, C29G, U30C, G31A
# DNA 1: CAATCTGAATTCCGGTCTCCC
# DNA 2: TGGTGGCTACGACGGGATT
# B6: CAAUUUA (DNA:RNA)
# RNA: B1 RNA with C28U, C29U, G31A
# DNA 1: CAATCTGAATTCCGGTCTCCC
# DNA 2: TGGTGGCTACGACGGGATT
# B7: CUAGUUC (DNA:RNA)
# RNA: B1 RNA with A26U, C28G, C29U, G31C
# DNA 1: CAATCTGAATTCCGGTCTCCC
# DNA 2: TGGTGGCTACGACGGGATT
# B8: GAGGGUC (DNA:RNA)
# RNA: B1 RNA with C25G, A27G, C28G, C29G, G31C
# DNA 1: CAATCTGAATTCCGGTCTCCC
# DNA 2: TGGTGGCTACGACGGGATT
# B9: GGCGAGU (DNA:RNA)
# RNA: GGGAGACCGGAAUUCAGAUUGUCCGGCGAGUUUAAAUCCCGUCGUAGCCACCA
# DNA 1: CAATCTGAATTCCGGTCTCCC
# DNA 2: TGGTGGCTACGACGGGATT
# B10: AAGGGGA (DNA:RNA)
# RNA: B9 RNA with G25A, G26A, C27G, A29G, U31A
# DNA 1: CAATCTGAATTCCGGTCTCCC
# DNA 2: TGGTGGCTACGACGGGATT
# B11: AAUGUUC (DNA:RNA)
# RNA: B1 RNA with C25A, A27U, C28G, C29U, G31C
# DNA 1: CAATCTGAATTCCGGTCTCCC
# DNA 2: TGGTGGCTACGACGGGATT
# B12: AGACCGA (DNA:RNA)
# RNA: B1 RNA with C25A, A26G, U30G, G31A
# DNA 1: CAATCTGAATTCCGGTCTCCC
# DNA 2: TGGTGGCTACGACGGGATT
# B13: GUCAGCC (DNA:RNA)
# RNA: B9 RNA with G26U, G28A, A29G, G30C, U31C
# DNA 1: CAATCTGAATTCCGGTCTCCC
# DNA 2: TGGTGGCTACGACGGGATT
# B14: AGCUUCG (DNA:RNA)
# RNA: B9 RNA with G25A, G28U, A29U, G30C, U31G
# DNA 1: CAATCTGAATTCCGGTCTCCC
# DNA 2: TGGTGGCTACGACGGGATT
# B15: UCACUUG (DNA:RNA)
# RNA: B1 RNA with C25U, A26C, C29U
# DNA 1: CAATCTGAATTCCGGTCTCCC
# DNA 2: TGGTGGCTACGACGGGATT
# B16: GUUUGAC (DNA:RNA)
# RNA: B9 RNA with G26U, C27U, G28U, A29G, G30A, U31C
# DNA 1: CAATCTGAATTCCGGTCTCCC
# DNA 2: TGGTGGCTACGACGGGATT
# B17: AUUUGAG (DNA:RNA)
# RNA: B1 RNA with C25A, A26U, A27U, C28U, C29G, U30A
# DNA 1: CAATCTGAATTCCGGTCTCCC
# DNA 2: TGGTGGCTACGACGGGATT
# B18: GGUUGUA (DNA:RNA)
# RNA: B9 RNA with C27U, G28U, A29G, G30U, U31A
# DNA 1: CAATCTGAATTCCGGTCTCCC
# DNA 2: TGGTGGCTACGACGGGATT
# B19: CUCGUUC (DNA:RNA)
# RNA: B1 RNA with A26U, A27C, C28G, C29U, G31C
# DNA 1: CAATCTGAATTCCGGTCTCCC
# DNA 2: TGGTGGCTACGACGGGATT
# B20: CACGUGC (DNA:RNA)
# RNA: B9 RNA with G25C, G26A, A29U, U31C
# DNA 1: CAATCTGAATTCCGGTCTCCC
# DNA 2: TGGTGGCTACGACGGGATT
# B21: CUAACUU (DNA:RNA)
# RNA: B1 RNA with A26U, C28A, G31U
# DNA 1: CAATCTGAATTCCGGTCTCCC
# DNA 2: TGGTGGCTACGACGGGATT
# B22: AUGCAGA (DNA:RNA)
# RNA: B9 RNA with G25A, G26U, C27G, G28C, U31A
# DNA 1: CAATCTGAATTCCGGTCTCCC
# DNA 2: TGGTGGCTACGACGGGATT
# B23: CCUUCAA (DNA:RNA)
# RNA: B1 RNA with A26C, A27U, C28U, U30A, G31A
# DNA 1: CAATCTGAATTCCGGTCTCCC
# DNA 2: TGGTGGCTACGACGGGATT
# B24: CCCGUCC (DNA:RNA)
# RNA: B9 RNA with G25C, G26C, A29U, G30C, U31C
# DNA 1: CAATCTGAATTCCGGTCTCCC
# DNA 2: TGGTGGCTACGACGGGATT
# B25: UUGUUCA (DNA:RNA)
# RNA: GGGAGACCGGAAUUCAGAUUGUCCUUGUUCAUUAAAUCCCGUCGUAGCCACCA
# DNA 1: CAATCTGAATTCCGGTCTCCC
# DNA 2: TGGTGGCTACGACGGGATT
# B26: GUAGACG (DNA:RNA)
# RNA: B9 RNA with G26U, C27A, G30C, U31G
# DNA 1: CAATCTGAATTCCGGTCTCCC
# DNA 2: TGGTGGCTACGACGGGATT
# B27: UAUCCCA (DNA:RNA)
# RNA: B1 RNA with C25U, A27U, U30C, G31A
# DNA 1: CAATCTGAATTCCGGTCTCCC
# DNA 2: TGGTGGCTACGACGGGATT
# B28: CGCGAAG (DNA:RNA)
# RNA: B9 RNA with G25C, G30A, U31G
# DNA 1: CAATCTGAATTCCGGTCTCCC
# DNA 2: TGGTGGCTACGACGGGATT
# B29: CUGCAUC (DNA:RNA)
# RNA: B1 RNA with A26U, A27G, C29A, G31C
# DNA 1: CAATCTGAATTCCGGTCTCCC
# DNA 2: TGGTGGCTACGACGGGATT
# B30: GAAAUAC (DNA:RNA)
# RNA: B1 RNA with C25G, C28A, C29U, U30A, G31C
# DNA 1: CAATCTGAATTCCGGTCTCCC
# DNA 2: TGGTGGCTACGACGGGATT
# B31: AGUUGUU (DNA:RNA)
# RNA: B9 RNA with G25A, C27U, G28U, A29G, G30U
# DNA 1: CAATCTGAATTCCGGTCTCCC
# DNA 2: TGGTGGCTACGACGGGATT
# Biological target: T1, RBFOX1 RRM
# Experiment: EMSA; HiTS-Eq, 1 nM pool, 10 min; buffer printed only for the single-RNA assays: 10 mM Tris pH 7.5, 150 mM NaCl, 3.4 mM EDTA, 0.001% NP-40, 30 C
# Details: tags: His6 N-terminal (pET28a); label: 5' 32P
# Method in brief: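 Purified RbFox RRM, wild type or mutant, was incubated for 10 min in 50 µL with 1 nM of a 5′-radiolabelled RNA pool carrying 7 randomized nucleotides, whose flanks were annealed to DNA oligonucleotides, over a series of increasing protein concentrations. Unbound RNA was resolved on 8% native PAGE, cut out, reverse-transcribed, barcoded by PCR and sequenced on an Illumina HiSeq 2500. Relative association constants were derived from changes in read counts for each RNA species versus the control reaction and normalised to the cognate motif.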
row,Binder,binding signal
1,B1,0.00534 KA relative to UGCAUGU
2,B2,0.0216 KA relative to UGCAUGU
3,B3,0.00451 KA relative to UGCAUGU
4,B4,0.00473 KA relative to UGCAUGU
5,B5,0.00968 KA relative to UGCAUGU
6,B6,0.000937 KA relative to UGCAUGU
7,B7,0.00709 KA relative to UGCAUGU
8,B8,0.0179 KA relative to UGCAUGU
9,B9,0.0177 KA relative to UGCAUGU
10,B10,0.00669 KA relative to UGCAUGU
11,B11,0.0103 KA relative to UGCAUGU
12,B12,0.0069 KA relative to UGCAUGU
13,B13,0.0117 KA relative to UGCAUGU
14,B14,0.0148 KA relative to UGCAUGU
15,B15,0.00877 KA relative to UGCAUGU
16,B16,0.0185 KA relative to UGCAUGU

row,Binder,binding signal
1,B17,0.017 KA relative to UGCAUGU
2,B18,0.0162 KA relative to UGCAUGU
3,B19,0.0112 KA relative to UGCAUGU
4,B20,0.00811 KA relative to UGCAUGU
5,B21,0.00453 KA relative to UGCAUGU
6,B22,0.0122 KA relative to UGCAUGU
7,B23,0.00424 KA relative to UGCAUGU
8,B24,0.0149 KA relative to UGCAUGU
9,B25,0.0181 KA relative to UGCAUGU
10,B26,0.0104 KA relative to UGCAUGU
11,B27,0.00164 KA relative to UGCAUGU
12,B28,0.0123 KA relative to UGCAUGU
13,B29,0.0212 KA relative to UGCAUGU
14,B30,0.00324 KA relative to UGCAUGU
15,B31,0.013 KA relative to UGCAUGU
